Experimental data: patent US9908927B2, “Single-chain trail-receptor agonist proteins” (AbbVie Inc., priority 2014, dated 2018)

What was measured:
[1] = system: MCF7; experiment: Tumor cell viability, CellTiter-Glo; type: cell-based, human; settings: MCF7 (BrCa), 24 hours
Experimental: (§1) Tumor cells were seeded at 10,000 cells/well in 96-well plates in the recommended media containing 10% FBS and treated with a TRAIL receptor agonist protein made up of two polypeptides having the amino acid sequence set forth in SEQ ID NO: 19 for 24 hours at 37° C. in a humidified, 5% CO2 atmosphere. Cell viability was subsequently assessed using CellTiter-Glo® reagent as described by the manufacturer's instructions (Promega; Madison, Wis.). IC50 values were determined by non-linear regression analysis of the concentration response data normalized to non-treated control cells.

[2] = system: HCT 116-GFP; experiment: Tumor cell viability, CellTiter-Glo; type: cell-based, human; settings: HCT 116-GFP (CRC), 24 hours
Experimental: as §1

[3] = system: SU-DHL-5; experiment: Tumor cell viability, CellTiter-Glo; type: cell-based, human; settings: SU-DHL-5 (NHL), 24 hours
Experimental: as §1

[4] = system: SKM-1; experiment: Tumor cell viability, CellTiter-Glo; type: cell-based, human; settings: 24 hours
Experimental: as §1

[5] = system: HCC827; experiment: Tumor cell viability, CellTiter-Glo; type: cell-based, human; settings: HCC827 (NSCLC), 24 hours
Experimental: as §1

[6] = system: OCI-Ly18; experiment: Tumor cell viability, CellTiter-Glo; type: cell-based, human; settings: OCI-Ly18 (NHL), 24 hours
Experimental: as §1

[7] = system: SKNO-1; experiment: Tumor cell viability, CellTiter-Glo; type: cell-based, human; settings: SKNO-1 (AML), 24 hours
Experimental: as §1

[8] = system: NCI-H522; experiment: Tumor cell viability, CellTiter-Glo; type: cell-based, human; settings: NCI-H522 (NSCLC), 24 hours
Experimental: as §1

[9] = system: OCI-Ly8; experiment: Tumor cell viability, CellTiter-Glo; type: cell-based, human; settings: OCI-Ly8 (NHL), 24 hours
Experimental: as §1

[10] = system: NUDHL-1; experiment: Tumor cell viability, CellTiter-Glo; type: cell-based, human; settings: NUDHL-1 (NHL), 24 hours
Experimental: as §1

[11] = system: TF-1; experiment: Tumor cell viability, CellTiter-Glo; type: cell-based, human; settings: TF-1 (AML), 24 hours
Experimental: as §1

[12] = system: OCI-LY3; experiment: Tumor cell viability, CellTiter-Glo; type: cell-based, human; settings: OCI-LY3 (NHL), 24 hours
Experimental: as §1

[13] = system: NCI-H2444; experiment: Tumor cell viability, CellTiter-Glo; type: cell-based, human; settings: NCI-H2444 (NSCLC), 24 hours
Experimental: as §1

[14] = system: WSU-DLCL2; experiment: Tumor cell viability, CellTiter-Glo; type: cell-based, human; settings: WSU-DLCL2 (NHL), 24 hours
Experimental: as §1

[15] = system: Capan-1; experiment: Tumor cell viability, CellTiter-Glo; type: cell-based, human; settings: Capan-1 (Pancreatic), 24 hours
Experimental: as §1

[16] = system: Kasumi-1; experiment: Tumor cell viability, CellTiter-Glo; type: cell-based, human; settings: Kasumi-1 (AML), 24 hours
Experimental: as §1

[17] = system: OCI-AML5; experiment: Tumor cell viability, CellTiter-Glo; type: cell-based, human; settings: OCI-AML5 (AML), 24 hours
Experimental: as §1

[18] = system: RC-K8; experiment: Tumor cell viability, CellTiter-Glo; type: cell-based, human; settings: RC-K8 (NHL), 24 hours
Experimental: as §1

[19] = system: OCI-Ly7; experiment: Tumor cell viability, CellTiter-Glo; type: cell-based, human; settings: OCI-Ly7 (NHL), 24 hours
Experimental: as §1

[20] = system: OCI-LY19; experiment: Tumor cell viability, CellTiter-Glo; type: cell-based, human; settings: OCI-LY19 (NHL), 24 hours
Experimental: as §1

[21] = system: NCI-H1650-GFP; experiment: Tumor cell viability, CellTiter-Glo; type: cell-based, human; settings: NCI-H1650-GFP (NSCLC), 24 hours
Experimental: as §1

[22] = system: KG-1; experiment: Tumor cell viability, CellTiter-Glo; type: cell-based, human; settings: KG-1 (AML), 24 hours
Experimental: as §1

[23] = system: SW480; experiment: Tumor cell viability, CellTiter-Glo; type: cell-based, human; settings: SW480 (CRC), 24 hours
Experimental: as §1

[24] = system: MDA-MB-231; experiment: Tumor cell viability, CellTiter-Glo; type: cell-based, human; settings: MDA-MB-231 (BRCa), 24 hours
Experimental: as §1

[25] = system: NCI-H211; experiment: Tumor cell viability, CellTiter-Glo; type: cell-based, human; settings: NCI-H211 (SCLC), 24 hours
Experimental: as §1

[26] = system: CTG-0136 (esophageal); experiment: Patient-derived xenograft model CTG-0136; type: in vivo; settings: CTG-0136 (esophageal) PDX, NSG female mice; 3 mkd dosed IP, Q2Dx5
Experimental: The effect of a TRAIL receptor agonist protein made up of two polypeptides having the amino acid sequence set forth in SEQ ID NO:19 on tumor growth was also evaluated in patient-derived xenograft models CTG-0069 (colorectal), CTG-0167 (NSCLC), CTG-0293 (pancreatic), CTG-0714 (sarcoma), CTG-0136 (esophageal), CTG-485 (gastric), and CTG-0785 (Ewing's sarcoma) implanted in NSG female mice (Champions Oncology; Hackensack, N.J.). Briefly, tumor fragments were propagated subcutaneously into the right hind flank of female NSG mice on study day 0. Administration of a TRAIL receptor agonist protein made up of two polypeptides having the amino acid sequence set forth in SEQ ID NO: 19 (3 mkd dosed IP, Q2Dx5) was initiated at the time of size match. Tumor volume was measured for the duration of the experiment until the mean tumor volume in each group reached an endpoint of >2000 mm^3 or 60 days.

[27] = system: subcutaneous SKM-1 (acute myeloid leukemia) xenograft tumors; experiment: SKM-1 acute myeloid leukemia xenograft model; type: in vivo; settings: SKM-1 xenograft, SCID female mice; 0.3, 1, or 3 mkd dosed IV, QDx5 or IP, Q2Dx5 as indicated
Experimental: The effect of a TRAIL receptor agonist protein made up of two polypeptides having the amino acid sequence set forth in SEQ ID NO:19 on tumor growth was evaluated in subcutaneous Colo205 (colorectal), SKM-1 (acute myeloid leukemia), and H460LM (non-small cell lung) xenograft tumors implanted in SCID female mice (Charles Rivers Laboratories; Wilmington, Mass.). Briefly, human cancer cells were inoculated subcutaneously into the right hind flank of female SCID mice on study day 0. Administration of TRAIL receptor agonist protein of SEQ ID NO:19 (0.3, 1, or 3 mkd dosed IV, QDx5 or IP, Q2Dx5 as indicated) was initiated at the time of size match. Tumor volume was measured for the duration of the experiment until the mean tumor volume in each group reached an endpoint of >2000 mm^3 for Colo205 and SKM-1 or >2500 mm^3 for H460LM.

IC50 [1]: >3000 ng/mL | IC50 [2]: 337.00 ng/mL | IC50 [3]: 82.07 ng/mL | IC50 ([4]; SKM-1 (AML)): 0.95 ng/mL | IC50 [5]: 2824.50 ng/mL | IC50 [6]: 196.20 ng/mL | IC50 [7]: 1000.00 ng/mL | IC50 [8]: 259.87 ng/mL | IC50 [9]: 7.49 ng/mL | IC50 [10]: 6.50 ng/mL | IC50 [11]: 1000.00 ng/mL | IC50 [12]: 1000.00 ng/mL | IC50 [13]: 27.75 ng/mL | IC50 [14]: 1000.00 ng/mL | IC50 [15]: 393.00 ng/mL | IC50 [16]: 1000.00 ng/mL | IC50 [17]: 1032.60 ng/mL | IC50 [18]: 1000.00 ng/mL | IC50 [19]: 63.76 ng/mL | IC50 [20]: 26.34 ng/mL | IC50 [21]: >3 ng/mL | IC50 [22]: 1000.00 ng/mL | IC50 [23]: 132.00 ng/mL | IC50 [24]: 235.00 ng/mL | IC50 [25]: 72.58 ng/mL
B1: SEQ ID NO: 19: made up of two polypeptides of SEQ ID NO: 19; three hinge cysteines, N297S aglycosylated CH2, glycosites at positions 168 and 337 (protein)
chain: QRVAAHITGTRGRSNTLSSPNSKNEKALGRKINSWESSRSGHSFLSNLHLRNGELVIHEKGFYYIYSQTYFRFQEEIKENTKNDKQMVQYIYKYTSYPDPILLMKSARNSCWSKDAEYGLYSIYQGGIFELKENDRIFVSVTNEHLIDMDHEASFFGAFLVGGSGSGNGSRVAAHITGTRGRSNTLSSPNSKNEKALGRKINSWESSRSGHSFLSNLHLRNGELVIHEKGFYYIYSQTYFRFQEEIKENTKNDKQMVQYIYKYTSYPDPILLMKSARNSCWSKDAEYGLYSIYQGGIFELKENDRIFVSVTNEHLIDMDHEASFFGAFLVGGSGSGNGSRVAAHITGTRGRSNTLSSPNSKNEKALGRKINSWESSRSGHSFLSNLHLRNGELVIHEKGFYYIYSQTYFRFQEEIKENTKNDKQMVQYIYKYTSYPDPILLMKSARNSCWSKDAEYGLYSIYQGGIFELKENDRIFVSVTNEHLIDMDHEASFFGAFLVGGPGSSSSSSSG[human IgG1 Fc with N297S (EU numbers) not written out]
modifications: homodimer
cell death / cell viability (FIG. 19) ([4]; SKM-1 cells, increasing concentrations): induces cell death | effect on tumor growth [26]: significant tumor growth inhibition | effect on tumor growth [27]: significant tumor growth inhibition
